The source gives no read counts; variants with many changes may rest on few reads.
B1: CPEB3 Ribozyme (parent)
chain: UAACAGGGGGCCACAGCAGAAGCGUUCACGUCGCAGCCCCUGUCAGAUUCUGGUGAAUCUGCGAAUUCUGCUGUAUAUCUC

Variants of: B1
Assay: self-cleavage, relative activity (ratio to wild type); higher = more cleavage; in vitro, sequencing
How it was run: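 Relative activity compares each variant's cleaved/total read fraction with that of the unmutated ribozyme. To get these fractions, barcoded CPEB3 ribozyme libraries from rounds of error-prone PCR were transcribed with T7 RNA polymerase for 5 hours at 37°C and then given 15 min of DNase I treatment before EDTA was added. The RNAs were reverse transcribed with template switching and sequenced on Illumina, and DNA sequencing linked barcodes to variants. A minimum of 5 reads applied, and three batches were averaged.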
For UAACAGGGGGCCACAGCAGAGGCGUUCACGUCCCAGCCCCCGCCAGAUUCUGGUGAAUCUGCGGAUUCUGCUGUAUAUCUC [A21G G33C U41C U43C A64G], the self-cleavage was 0.06.
For UAACAGGGGGCCACAGCAGAGGCGAUCGCGUCGCAGCCCCUGUUAGGUUCUGGUGAAUCUGUGAGUUCUGCUGUAUAUCUC [A21G U25A A28G C44U A47G C62U A65G], the self-cleavage was 0.1.
For UAACAGGGGGCCACAGCAGAGGCGCUCACGUCGCAGCCCCUGACAGAUUCGGGUGAAUCUGCGAAUUCUGCUGUAUAUCUC [A21G U25C U43A U51G], the self-cleavage was 0.18.
UAACAGGGGGCCACAGCAGAGGCGUUCACCUCGCAGCCCCUGUCAGGUUCUGGUGAAUCCGCGAGUUCUGCUGUAUAUCUC [A21G G30C A47G U60C A65G] showed a self-cleavage of 0.08.
Variant UAACAGGGGGCCACAGCAGAGGCGCUCACGUCGCCGCCCCUGUCAGAUUCUGGUGAAUCUGCGAAUUCUGCUGUAUAUCUC [A21G U25C A35C] has a self-cleavage of 0.07.
In the case of UAACAGGGGGCCACAGCAGAGGCGCUCACGUCGCAGCCCCUGUCAGAUUCUGGUGAAUCUGCGAAUCCAGCUGUAUAUCUC [A21G U25C U67C U69A], the self-cleavage is reported as 0.12.
UAACAGGGGGCCACAGCAGAGGCGUUCACGUCGCAGCCCUUGUCAGGUUCUGGUGAAUCUGCGAAUUCUGCUGUAUAUCUC [A21G C40U A47G] showed a self-cleavage of 0.15.
For UAACAGGGGGCCACAGCAGAGGCGUUCACGUCGCAACCCCUGUCAGAUUCAGGUGAAUCUGCGGGUUCUGCUGUAUAUCUC [A21G G36A U51A A64G A65G], the self-cleavage was 0.08.
For UAACAGGGGGCCACAGCAGAGGCGUUCACGUCGCAGCUCCUGUCAGACUCUGGUGAAUCUGCGAUUUCUGCUGUAUAUCUC [A21G C38U U48C A65U], the self-cleavage was 0.31.
In the case of UAACAGGGGGCCACAGCAGAGGCGUUCACAACGCAGCCCCUGUCAGAUUCUGGUGAACCUGCGAGUUCUGCUGUAUAUCUC [A21G G30A U31A U58C A65G], the self-cleavage is reported as 0.07.
UAACAGGGGGCCACAGCAGAGGCUAUCACGUCGCAGCCCCUGUCAGAUUCUGGUGAGUCUGCGAAUUCUGCAGUAUAUCUC [A21G G24U U25A A57G U72A] showed a self-cleavage of 0.07.
UAACAGGGGGCCACAGCAGAGGCGCUCACGUCGCAGCCCCUGUCAGAUUCCGGUGAAUCUGCGAAUUCUGCUGUAUACCUC [A21G U25C U51C U78C] gave a self-cleavage of 0.05.
UAACAGGGGGCCACAGCAGAGACGUUCACGUCGCAGCCCCUGUCAGAUUCUGGUGAAUCAGCGAAUUCUGCUGUACAUCUC [A21G G22A U60A U76C] gave a self-cleavage of 0.13.
UAACAGGGGGCCACAGCAGAGGCGCUCACAUCGCAGCCCCUGUCAGAUUCUGGUGAACCUGCGAAUUCUGCUGUAUAUCUC [A21G U25C G30A U58C] showed a self-cleavage of 0.4.
Variant UAACAGGGGGCCACAGCAGAGGCAUUCACGUCGCAGCUCCUGUCAGAUUCUGGUGAAUCUGCGAAUUCUGCUGUAUAUCUC [A21G G24A C38U] has a self-cleavage of 0.24.
UAACAGGGGGCCACAGCAGAGGCAUUCACGUCACAGCCCCUGCCAGAUUCUGGUGAAUCUGCGAAUUCUGCUGUAUAUCUC [A21G G24A G33A U43C] showed a self-cleavage of 0.07.
In the case of UAACAGGGGGCCACAGCAGAGGCGCUCACGUCGCAGCCCCUGUCAGAUUCUGGUGUAUCAGCGAAGUCUGCUGUAUAUCUC [A21G U25C A56U U60A U66G], the self-cleavage is reported as 0.08.
UAACAGGGGGCCACAGCAGAGGCGUUCACGUCGCAGCCCUUGUCAGAUUCUGGUGAAUCCGCGAAUUCUGCUGUAUAUCUC [A21G C40U U60C] showed a self-cleavage of 0.06.
Variant UAACAGGGGGCCACAGCAGAGGCGCUCACGGCGCAGCCCCCGUCAGAUUCUGGUGAAUCUGCGAACUCUGCUGUAUAUCUC [A21G U25C U31G U41C U66C] has a self-cleavage of 0.25.
Work on UAACAGGGGGCCACAGCAGAGGCGUUCACGUCGCAGCCUCUACCAGAUUCUGGUGAAUCUGCUAAUUCUGCUGUAUAUCUC [A21G C39U G42A U43C G63U] yielded a self-cleavage of 0.06.
Variant UAACAGGGGGCCACAGCAGAGGCGCUCACGUCGCAGCCCCCGUCAGAUUCUGGUGAAUCUGCGAAUUAUGCUGUAUAUCUC [A21G U25C U41C C68A] has a self-cleavage of 0.7.
Variant UAACAGGGGGCCACAGCAGAGGCGUUCACGUCGCAGCCACUGUCAGAUUCUGGUGAAUCUGCGAAUUCUGCUGUAUAUUUC [A21G C39A C79U] has a self-cleavage of 0.26.
Work on UAACAGGGGGCCACAGCAGAGGCGUUCACGUCGCAGCCCCUGUCAGAUUCUGGUGAAUCUGGGAAUUCUGCCGUGUAUCUC [A21G C62G U72C A75G] yielded a self-cleavage of 0.28.
Variant UAACAGGGGGCCACAGCAGAGGCGUUCACGUCGCAACCCCUGUCAGAUCCUGGUGAAUCUGCGAAUUCUGCUGUAUAUCUC [A21G G36A U49C] has a self-cleavage of 0.32.
Work on UAACAGGGGGCCACAGCAGAGGCGUUCACGUCGCAGCCCCUGUCAGAUUCUGGUGAAUCUGUGAAUUCUGCUGCAUAUCUC [A21G C62U U74C] yielded a self-cleavage of 0.25.
Work on UAACAGGGGGCCACAGCAGAGGCGCUCACGACGCAGCCCCUGUCAGAUUCUGGUGAAUCUGCGAAUUCUGCUGUAUAUCCC [A21G U25C U31A U80C] yielded a self-cleavage of 0.11.
For UAACAGGGGGCCACAGCAGAGGCGCUCACGUCGCAGCCCCCGUCAGAUCCUGGUGAAUCUGCGAAUUCUGCUGUAUAUCUC [A21G U25C U41C U49C], the self-cleavage was 0.07.
With UAACAGGGGGCCACAGCAGAGCCGUUCACGUCCCAGCCCCUGCCAGAUCCUGGUCAAUCUGCGAAUUCUGCUGUAUAUCUC [A21G G22C G33C U43C U49C G55C] the self-cleavage was 0.13.
In the case of UAACAGGGGGCCACAGCAGAGGCGUUCACGUCCCAGCCCCUGUCAGAUCCUGGUGAAUCUGCGAAUCCUCCCGUAUAUCUC [A21G G33C U49C U67C G70C U72C], the self-cleavage is reported as 0.18.
In the case of UAACAGGGGGCCACAGCAGAGGCGUUCACGUCACGGCCCCUGUCAGAUUCUGGUGAAUCUGCGAAGUCCGCUGUAUAUCUC [A21G G33A A35G U66G U69C], the self-cleavage is reported as 0.06.
UAACAGGGGGCCACAGCAGAGGCGUUCACGUCGCAGCCCCUGUCAGAUUCUGGUGAAUUUGCGAGUUCUGCAGUAUAUCUC [A21G C59U A65G U72A] gave a self-cleavage of 0.09.
With UAACAGGGGGCCACAGCAGAGGCGUUCACGUCGCAGCCCUAGUCUGAUUCUGGUGAAUCUGCGAAUUCUGCCGUAUAUCUC [A21G C40U U41A A45U U72C] the self-cleavage was 0.34.
With UAACAGGGGGCCACAGCAGAGGCGCUCACGUCGCAGCCCCUGUCAGAUUCUGGUGAAUCUGCGAAUUCUGUUGUAAAUCUC [A21G U25C C71U U76A] the self-cleavage was 0.07.
UAACAGGGGGCCACAGCAGAGGCGUUCACGUCGCAGCACCCCUCAGAUUCUGGAGAAUCUGCGAAUUCUGCUGUAUUUCUC [A21G C38A U41C G42C U54A A77U] showed a self-cleavage of 0.11.
